Experimental data reported in PubChem BioAssay AID320 (DTP/NCI, 2004).
Toxic doses and inconclusive results are not listed. Some entries of the source have several records that differ or are many. This list holds those alone. An entry can have further records. Values given together are repeated measurements (runs, samples, wells, individuals or studies).

Tested on: BDF1 mice, P329 reticulum cell sarcoma ip, survival T/C
Assay: NCI In Vivo Anticancer Drug Screen. Data for tumor model P329 Reticulum Cell Sarcoma (intraperitoneal) in B6D2F1 (BDF1) mice
Conditions: endpoint: median survival time, schedule: Q01DX010 (ip), higher = longer survival
Method: The antitumor activity of compounds was measured in mice bearing transplantable tumors. Survival or tumor size were measured and the results are expressed as the measurement made in the treated group (T) divided by the measurement made in the vehicle treated control group (C). The tumor model used in this assay is P329 Reticulum Cell Sarcoma (intraperitoneal) in B6D2F1 (BDF1) mice

CN(Cc1cnc2nc(N)nc(N)c2n1)c1ccc(C(=O)N[C@@H](CCC(=O)O)C(=O)O)cc1
T/C (dose: 1.5 mg/kg/injection, vehicle: other): 100 % of control, 115 % of control, 166 % of control

CSc1ncnc2nc[nH]c12
T/C (dose: 50.0 mg/kg/injection, vehicle: saline): 123 % of control and 153 % of control | T/C (dose: 200.0 mg/kg/injection, vehicle: saline): 123 % of control and 153 % of control

N#CCSc1ncnc2nc[nH]c12
T/C (dose: 60.0 mg/kg/injection, vehicle: saline): 123 % of control and 153 % of control

CCn1cnc2c(=S)nc[nH]c21
T/C (dose: 62.5 mg/kg/injection, vehicle: saline): 117 % of control and 169 % of control
